# Measurements: the supplement of paper PMC12217912
# This is one part of the list. Sequences were assembled here from the parent chain. Inactive controls read about 0.05.
# B1: TEV protease; numbered along this chain (parent)
# chain: MGESLFKGPRDYNPISSSICHLTNESDGHTTSLYGIGFGPFIITNKHLFRRNNGTLVVQSLHGVFKVKDTTTLQQHLVDGRDMIIIRMPKDFPPFPQKLKFREPQREERICLVTTNFQTKSMSSMVSDTSCTFPSGDGIFWKHWIQTKDGQCGSPLVSTRDGFIVGIHSASNFTNTNNYFTSVPKNFMELLTNQEAQQWVSGWRLNADSVLWGGHKVFMVKPEEPFQPVKEATQL
# Variants of: B1
# Assay: raw area under fraction-flipped curve 0-4 h after induction (AUC4h, not background-subtracted), DNA-recorder readout of cleavage of the substrate (dimensionless); higher = more cleavage of the substrate by the protease variant
# Settings: temperature: 34 °C; time window: 0-4 h after rhamnose induction
# Protocol: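 In vivo DNA recorder in E. coli TOP10(DE3) ΔrhaA at 34 °C. Each TEVp single-site mutant (parent TEVp 0) is paired with a single-site variant of the 7-mer TEVs (canonical ENLYFQ|S). The substrate sits between flexible linkers in a Bxb1-sfGFP-TEVs-SsrA fusion, so cleavage stabilises Bxb1 and speeds flipping of a recombination array, read by NGS. The value is the raw area under the fraction-flipped curve over 0-4 h after rhamnose induction (AUC4h), with ≥20 reads per time point. It is not background-subtracted; inactive controls average about 0.047.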
# 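Further: Bxb1 expression induced with 0.2% (w/v) L-rhamnose at OD600 near 0.5, cultures sampled hourly, flipped fraction per protease–substrate barcode pair counted by paired-end Illumina sequencing.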
Variant,area with substrate ENLAFQS,area with substrate ENLDFQS,area with substrate ENLFFQS,area with substrate ENLGFQS,area with substrate ENLKFQS,area with substrate ENLLFQS,area with substrate ENLMFQS,area with substrate ENLNFQS,area with substrate ENLPFQS,area with substrate ENLQFQS,area with substrate ENLRFQS,area with substrate ENLSFQS,area with substrate ENLVFQS,area with substrate ENLWFQS,area with substrate ENLEFQS,area with substrate ENLHFQS,area with substrate ENLTFQS,area with substrate ENLCFQS,area with substrate ENLIFQS
V64P,0.0561,0.0655,0.0704,0.0668,0.0765,0.0764,0.0872,0.0478,0.0629,0.057,0.0753,0.0626,0.0846,0.0628,,,,,
V64W,0.0751,,0.0861,0.0816,,0.0603,,0.0641,,0.0407,0.0608,,,,0.0608,0.0851,0.0667,,
T72C,0.0663,0.0754,0.0974,,,,,0.0647,,0.0525,0.0527,0.0723,,0.0653,,0.0723,0.0905,0.0665,
T72H,0.0383,0.0642,0.0728,,0.111,0.0665,0.094,0.0536,0.0572,,0.0771,0.0462,,0.0315,0.0647,0.0632,,0.0636,
T72V,0.0592,0.0597,0.0953,0.0667,0.0782,0.0605,0.0777,0.0704,0.0591,0.0569,0.0742,0.0543,,0.0953,0.0811,0.0814,,,0.0653
V157F,0.0591,0.0633,0.0855,,0.0637,0.0638,,0.0595,0.0593,0.0707,0.0647,0.0538,,,0.0608,0.0472,,0.0627,0.0763
N24Q,0.071,0.0734,0.0762,0.0905,0.0752,0.0718,0.0654,0.059,0.0538,0.0729,,0.0615,0.0659,,0.0617,,,0.063,0.0649
N24C,0.0604,0.0561,0.0747,0.0841,0.0764,,,0.0603,0.0493,0.0643,,0.0596,0.0491,0.0602,,0.0724,,,0.0783
P96N,0.0704,0.0661,0.0985,0.0677,0.0734,,0.0664,0.0716,0.054,0.0844,0.0771,0.0423,0.0926,0.0649,0.0549,0.0691,0.0753,0.0827,0.075
S32R,0.0633,0.0593,0.0975,,0.0714,0.0707,0.0767,0.0751,,,,0.0576,0.0813,,0.0568,0.0726,0.0709,0.0559,0.0842
S32D,0.0697,0.0561,0.106,,0.0564,0.0492,,0.0573,0.0685,0.0668,0.0666,0.0667,,0.0689,0.0576,0.0642,,0.0691,
V220R,0.0674,0.0688,0.0774,0.0759,0.0662,0.0735,,0.0665,0.0595,0.0828,,,0.081,0.0541,0.0658,0.0751,,0.0608,
T176N,0.0669,,0.072,0.0744,0.0561,,,0.0621,0.0643,0.0657,0.0607,0.0507,,,0.0679,0.0655,,0.0646,0.0672
